The experiment has as its system SW 1271 complex tumor spheroid viability. Description: Anticancer human tumor SW 1271 cell line growth inhibition.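 Also: spheroids exposed to agents for seven days before readout; percent of DMSO vehicle control luminescence so 100% = vehicle.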 Conditions: stronger effect = lower value. From the text: Multicellular complex tumor spheroid response to DNA repair inhibitors in combination with DNA-damaging drugs
This study explores the anticancer activities of DNA-damaging drugs and inhibitors of DNA damage repair, both as single agents and in combinations. Complex tumor spheroids comprised of malignant cells, endothelial cells and mesenchymal stem cells served as an in vitro model for human solid tumors. This model system incorporates physiologically relevant features and patient-derived or established malignant cell lines with clinically relevant genetic alterations from many tumor types. Twenty-six patient-derived or established malignant cell lines were evaluated representing sarcoma, melanoma, small cell lung cancer (SCLC), non-small cell lung cancer (NSCLC), as well as bladder, ovarian and pancreatic cancers. The concentration ranges selected for each drug and investigational agent were based upon clinically achievable concentrations if the clinical Cmax of the agent was known.
Compounds. The drugs and compounds olaparib (NSC753686), talazoparib (NSC767125), berzosertib (NSC777718), elimusertib (NSC800525), nedisertib (NSC802822), VX-984 (NSC792969), AZD-1390 (NSC803789), temozolomide (NSC362856), topotecan (NSC609699), trabectedin (NSC813783), staurosporine (NSC755774), and gemcitabine (NSC613327) were obtained from the National Cancer Institute (NCI) Developmental Therapeutics Program Chemical Repository. The FDA-approved anticancer drug set is available from the Developmental Therapeutics Program at https://dtp.cancer.gov/organization/dscb/obtaining/available_plates.htm. […] The stock solutions were prepared in dimethyl sulfoxide (DMSO, Sigma-Aldrich, St. Louis, MO, cat. D2650) at 400-fold the tested concentration and stored at -70 degrees C. Prior to their use, the stock solutions were diluted in fresh medium and the final DMSO concentration in the assay was 0.25% (v/v). All drugs and investigational agents were tested over a range starting from a high concentration at or near the clinical Cmax and decreasing in half-log increments. If the clinical Cmax for an agent had not been determined, the highest concentration tested was 10 microM.
Cell Lines. The patient-derived cancer cell (PDC) lines: 156681-154-R-J1-PDC, 283228-195-R-J1-PDC, 287954-098-R-J1-PDC, 292921-168-R-J2-PDC, 349418-098-R-PDC, 425362-245-T-J1-PDC, 556581-035-R-J1-PDC, and BL0293-F563-PDC were received from the NCI Patient-Derived Models Repository (PDMR, https://pdmr.cancer.gov). The established cell lines HS-SY-2 (RRID:CVCL_8719), MPNST, and SYO-1 (RRID:CVCL_7146) were obtained from the Sloan Kettering Institute. The alveolar soft parts sarcoma cell line ASPS-1 (RRID:CVCL_S738) was established at the NCI and grown from internal seed stocks. […]

The source holds more than one record for some entries. The other results are left out here. An entry can have further records. Values given together are repeated measurements across runs, samples, wells, individuals or studies. Brackets with × count equal records among those shown. A date in brackets names the month of the test.

For `Cn1nnc2c(C(N)=O)ncn2c1=O`, the viability, T/C is 102 (2×), 106, 105, 96.2, 101 (2×), 84.4, 97.2, 117% (compound alone 10 µM); 103 (2×), 111, 105 (2×), 106, 101, 29.9, 102, 109% (compound alone 31.6 µM); 84, 95.7, 89.5, 91.5, 85, 91.2, 10.4, 85.3, 87.5, 53.9% (compound alone 100 µM).
Consider `CC[C@@]1(O)C(=O)OCc2c1cc1n(c2=O)Cc2cc3c(CN(C)C)c(O)ccc3nc2-1`, for which the viability, T/C (compound alone 0.00949 µM) is 39.4, 48.8, 47.2, 48, 49.1% [2019-11] and 60.9, 52.7, 54.3, 55.1, 34.1% [2019-12].

For the origin of these results see PubChem BioAssay AID1845215 (Molecular Pharmacology Branch, DTP, NCI, 2023).
